{"source": "the antibiotic and cytotoxicity screens of Wong et al. (2023)", "note": "The list shows a part of the results."}
{"test_system": "HSkMC (human skeletal muscle cells)", "assay": "cytotoxicity call (relative viability < 0.9)", "conditions": "10 µM"}
{"smiles": "C[C@H](CO)N1C[C@H](C)[C@H](CN(C)Cc2ccc(C(F)(F)F)cc2)OCCCC[C@H](C)Oc2ccc(NC(=O)NC3CCCCC3)cc2C1=O", "cytotoxicity call": "inactive"}
{"smiles": "COc1ccc(NC(=O)Nc2ccc3c(c2)C(=O)N([C@@H](C)CO)C[C@@H](C)[C@@H](CN(C)C(=O)Nc2ccc(F)cc2)OCCCC[C@@H](C)O3)cc1", "cytotoxicity call": "inactive"}
{"smiles": "CC(C)NC(=O)Nc1ccc2c(c1)C(=O)N([C@H](C)CO)C[C@@H](C)[C@@H](CN(C)S(=O)(=O)c1ccc(F)cc1)O2", "cytotoxicity call": "inactive"}
{"smiles": "C[C@H](CO)N1C[C@H](C)[C@H](CN(C)Cc2ccc(C(=O)O)cc2)OCCCC[C@H](C)Oc2ccc(NS(=O)(=O)c3ccc(Cl)cc3)cc2C1=O", "cytotoxicity call": "inactive"}
{"smiles": "COc1ccc(S(=O)(=O)Nc2ccc3c(c2)C(=O)N([C@@H](C)CO)C[C@@H](C)[C@H](CN(C)Cc2ccc4c(c2)OCO4)OCCCC[C@H](C)O3)cc1", "cytotoxicity call": "inactive"}
{"smiles": "Cc1noc(C)c1NC(=O)N(C)C[C@H]1Oc2ccc(NC(=O)CCN3CCOCC3)cc2CC(=O)N([C@@H](C)CO)C[C@H]1C", "cytotoxicity call": "inactive"}
{"smiles": "O=C(N[C@@H]1CC=CC[C@H](CC(=O)N(CCO)Cc2ccccc2)C(=O)NCC(c2ccccc2)OC1=O)OCC1c2ccccc2-c2ccccc21", "note": "(stereo partly drawn)", "cytotoxicity call": "inactive"}
{"smiles": "C[C@H]1CCCCO[C@H](CN(C)S(=O)(=O)c2cccs2)[C@@H](C)CN([C@@H](C)CO)C(=O)c2cc(NS(=O)(=O)c3ccc(Cl)cc3)ccc2O1", "cytotoxicity call": "inactive"}
{"smiles": "C=CC[C@H](CC(=O)N(CCO)Cc1ccccc1)C(=O)NCCOC(=O)[C@H](CC=C)CC(=O)OC(C)(C)C", "cytotoxicity call": "inactive"}
{"smiles": "C[C@H]1CN([C@@H](C)CO)C(=O)Cc2cc(NS(C)(=O)=O)ccc2O[C@H]1CN(C)S(=O)(=O)c1ccc(F)cc1", "cytotoxicity call": "inactive"}
{"smiles": "COc1ccc(S(=O)(=O)Nc2cccc3c2O[C@@H](CN(C)S(=O)(=O)c2cn(C)cn2)[C@H](C)CN([C@H](C)CO)C3=O)cc1", "cytotoxicity call": "inactive"}
{"smiles": "C[C@@H]1CN([C@@H](C)CO)C(=O)CCCn2nncc2CO[C@@H]1CN(C)S(=O)(=O)c1cccc(C#N)c1", "cytotoxicity call": "inactive"}
{"smiles": "C=CCN1C(=O)[C@]2(O[C@H](CCO)[C@@H]([Si](C)(C)c3ccc(OC)cc3)[C@@H]2C)c2cc(N(C=O)c3ccccc3)ccc21", "cytotoxicity call": "active"}
{"smiles": "C[C@H](CO)N1C[C@H](C)[C@@H](CN(C)S(=O)(=O)c2cn(C)cn2)Oc2cc(C#Cc3ccc(F)cc3)ccc2S1(=O)=O", "cytotoxicity call": "inactive"}
{"smiles": "C[C@@H]1CN([C@H](C)CO)C(=O)c2cc(NC(=O)c3ccncc3)ccc2O[C@@H](C)CCCCO[C@@H]1CN(C)C(=O)C1CCCCC1", "cytotoxicity call": "inactive"}
{"smiles": "C[C@H](CO)N1C[C@H](C)[C@H](CN(C)S(=O)(=O)c2cccs2)Oc2ccc(NC(=O)Cc3ccccc3)cc2C1=O", "cytotoxicity call": "inactive"}
{"smiles": "COC(=O)[C@H](Cc1ccc(-n2cc(C(=O)NO)nn2)cc1)N[C@H](/C=C/C1CC1)[C@@H](O)Cc1ccccc1", "cytotoxicity call": "inactive"}
{"smiles": "Cl.c1ccc2c(CC3=NCCN3)cccc2c1", "cytotoxicity call": "inactive"}
{"smiles": "O=S(=O)(NCC[C@H]1CC[C@H](NS(=O)(=O)c2cccc(Cl)c2)[C@H](CO)O1)c1cccc(F)c1", "cytotoxicity call": "inactive"}
{"smiles": "C[C@@H]1CN([C@H](C)CO)C(=O)c2cc(NS(C)(=O)=O)ccc2O[C@@H](C)CCCCO[C@@H]1CN(C)S(C)(=O)=O", "cytotoxicity call": "inactive"}
{"smiles": "C[C@H]1CN([C@@H](C)CO)C(=O)c2cc(NC(=O)Cc3cn(C)c4ccccc34)ccc2O[C@H]1CN(C)C(=O)Nc1cccc2ccccc12", "cytotoxicity call": "inactive"}
{"smiles": "C[C@@H]1CCCCO[C@@H](CN(C)C(=O)Nc2cccc3ccccc23)[C@H](C)CN([C@@H](C)CO)C(=O)c2cc(NC(=O)CCCN(C)C)ccc2O1", "cytotoxicity call": "inactive"}
{"smiles": "COc1cccc(NC(=O)C[C@H]2CC[C@@H]3[C@H](COc4ccc(NC(=O)C5CCOCC5)cc4C(=O)N3C)O2)c1", "cytotoxicity call": "inactive"}
{"smiles": "Cc1ccc(S(=O)(=O)N[C@@H](Cc2ccccc2)C(=O)NCCn2cc(-c3ccc(C(=O)NO)s3)nn2)cc1", "cytotoxicity call": "inactive"}
{"smiles": "CC[N+](CC)(CC)CCOc1ccc(/C=C/c2ccccc2)cc1", "cytotoxicity call": "inactive"}
{"smiles": "COc1ccccc1CNC(=O)C[C@H]1C[C@@H]2c3cc(NC(=O)c4ccc5c(c4)OCO5)ccc3O[C@@H]2[C@H](CO)O1", "cytotoxicity call": "inactive"}
{"smiles": "Cc1ccc(S(=O)(=O)N(C)C[C@H]2Oc3c(NS(=O)(=O)c4cn(C)cn4)cccc3C(=O)N([C@@H](C)CO)C[C@H]2C)cc1", "cytotoxicity call": "inactive"}
{"smiles": "CS(=O)(=O)CC(=O)N1C[C@H]2COC[C@@]2(COc2ccccn2)C1", "cytotoxicity call": "inactive"}
